In PubChem BioAssay AID1768 (National Center for Advancing Translational Sciences (NCATS), 2009):
Hit rate of the full screen: of about 270,000 compounds, about 620 (0.23%) were called active. The shares of active, inactive and inconclusive entries below differ from those in the screen. Calls come from the whole dose curve; as a rule, active = well fitted inhibition curve with a large enough effect in the polarisation, with a control signal flat (not every such curve was filed as active); inconclusive = small, poorly fitted or top-dose-only effect, or effect the other way, or a change in a side signal; inactive = no such curve, though single readings can be large or run the other way; the % refers to the polarisation. Potencies of inconclusive entries are doubtful fits and often do not repeat. A note “side channel” means that the fit belongs to a control or component signal, not to the main read-out.

molecular target: Menin (Homo sapiens) (UniProt O00255); experiment: qHTS Assay for Inhibitors Targeting the Menin-MLL Interaction in MLL Related Leukemias: Competition With Texas Red Labeled MLL-derived Mutant Peptide; settings: fluorescence polarization; series mostly up to 61.6 µM
UniProt O00255, sequence (O00255 whole entry, looked up): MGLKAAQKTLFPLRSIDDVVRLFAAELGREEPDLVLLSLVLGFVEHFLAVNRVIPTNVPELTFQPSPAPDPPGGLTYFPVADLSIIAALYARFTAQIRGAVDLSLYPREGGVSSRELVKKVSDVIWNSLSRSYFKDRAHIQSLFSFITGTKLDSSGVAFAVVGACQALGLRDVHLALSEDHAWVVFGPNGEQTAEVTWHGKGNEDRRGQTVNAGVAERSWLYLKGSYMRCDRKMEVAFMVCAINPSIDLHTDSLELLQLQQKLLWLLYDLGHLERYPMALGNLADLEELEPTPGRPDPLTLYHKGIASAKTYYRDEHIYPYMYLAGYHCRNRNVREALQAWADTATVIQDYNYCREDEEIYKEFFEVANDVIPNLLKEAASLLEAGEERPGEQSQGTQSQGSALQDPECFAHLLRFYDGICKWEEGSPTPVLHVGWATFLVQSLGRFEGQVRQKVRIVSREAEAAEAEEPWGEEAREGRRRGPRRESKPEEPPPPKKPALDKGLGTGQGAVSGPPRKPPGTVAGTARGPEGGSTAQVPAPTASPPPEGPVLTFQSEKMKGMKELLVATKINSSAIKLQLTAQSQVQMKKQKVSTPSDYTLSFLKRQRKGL
Potency is the fitted concentration of half-maximal effect; tags give direction and shape of the fitted curve or compound fluorescence and quenching.

Potency, inconclusive:
O=C(COc1ccc(CO)cc1)Nc1ccc(F)cc1 8.91 µM [inhibitor, single point]
C/C(=N/NC(=O)c1cccs1)c1c(C)[nH]n(-c2nc3ccccc3s2)c1=O 12.6 µM [quencher, side channel, partial curve]
Cc1cc(C(=O)Nc2sccc2C#N)c2ccccc2n1 20 µM [quencher, side channel, single point]
CCc1nc2ccc(C(=O)NCCCN3CCN(c4ccccc4F)CC3)cc2nc1CC 12.6 µM [fluorescent, side channel, partial curve]
COc1cc(NC(=O)C2CC(c3cccc(Br)c3)=NO2)cc(OC)c1OC (stereo unspecified) 7.08 µM [inhibitor, full curve]
COc1ccc(NC(=O)Cn2nnc(-c3ccccc3F)n2)cc1Cl 28.2 µM [quencher, side channel, single point]
COc1cccc(S(=O)(=O)NCc2ccc(C(=O)Nc3cccc(Cl)c3)cc2)c1 10 µM [quencher, side channel, partial curve]
O=C(N/N=C/c1ccncc1)c1cc([N+](=O)[O-])cc([N+](=O)[O-])c1O 20 µM [quencher, side channel, single point]
COc1ccc(C(CC(=O)Nc2ccc(F)cc2)c2ccccc2)cc1 (stereo unspecified) 15.8 µM [quencher, side channel, partial curve]
O=C(O)c1nn(CCOc2c(Cl)cccc2Cl)c(=O)c2ccccc12 39.8 µM [inhibitor, single point]
COc1ccc(C(C(=O)NC2CCCC2)N(CC2CCCO2)C(=O)Cc2cccs2)cc1OC (stereo unspecified) 39.8 µM [fluorescent, side channel, single point]
O=C(Cc1ccccc1)Nc1nc(-c2cccc([N+](=O)[O-])c2)cs1 12.6 µM [quencher, side channel, partial curve]
O=C(N/N=C/c1ccco1)c1cccc(NC(=O)c2cccc(Cl)c2)c1 35.5 µM [quencher, side channel, single point]
COc1ccc(NC(=O)c2cccc(S(=O)(=O)N3CCc4ccccc43)c2)cn1 11.2 µM [quencher, side channel, partial curve]
O=[N+]([O-])c1cccc(-c2nc(-c3cccs3)c(-c3cccs3)[nH]2)c1 8.91 µM [quencher, side channel, partial curve]
COc1cc(/C=C2/C(=N)N3C=CSC3=NC2=O)ccc1OCCCOc1cc(C)ccc1C 12.6 µM [quencher, side channel, partial curve]
O=C1CC(N2CCC(c3nc4ccccc4o3)CC2)C(=O)N1c1cc(Cl)cc(Cl)c1 (stereo unspecified) 25.1 µM [fluorescent, side channel, single point]
COC(=O)CN1C(=S)N(Cc2ccccc2)C(=O)C1CC(=O)Nc1ccc(OC)cc1 (stereo unspecified) 14.1 µM [quencher, side channel, partial curve]
CCOc1ccc2nc(N3CCCCCC3)sc2c1 0.708 µM [inhibitor, full curve, poor fit]
CCN(CC)C(=O)Oc1ccc2c(=O)c(-c3ccccc3)coc2c1 39.8 µM [fluorescent, side channel, single point]
Cn1c(=O)[nH]c(=O)c2c1nc(CN1CCN(c3cccc(Cl)c3)CC1)n2CCc1ccccc1 7.08 µM [fluorescent, side channel, partial curve]
c1ccc(CSc2ccc(-c3ccccn3)nn2)cc1 31.6 µM [fluorescent, side channel, partial curve]
Nc1ccc(C(=O)N/N=C/c2sc(N3CCOCC3)nc2-c2ccccc2)cc1 20 µM [quencher, side channel, single point]
CCN1CCN(CC(O)COC(c2ccccc2)c2ccccc2C)CC1 (stereo unspecified) 10 µM [inhibitor, partial curve]
CC(C)=CCc1c(O)ccc(C(=O)Cc2ccccc2)c1O 22.4 µM [quencher, side channel, partial curve]
O=[N+]([O-])c1ccccc1S(=O)(=O)Nc1nc2ccccc2s1 14.1 µM [quencher, side channel, partial curve]
CCOC(=O)c1[nH]c(C)c(C(=O)N2CCN(c3ccc(OC)cc3)CC2)c1C 15.8 µM [fluorescent, side channel, partial curve]
O=C(N/N=C/c1c[nH]c2ccccc12)c1cc(-c2cccc3ccccc23)n[nH]1 14.1 µM [quencher, side channel, partial curve]
N#CCCn1cc(C(=O)Nc2ccc([N+](=O)[O-])cc2)c(-c2cc3ccccc3o2)n1 7.94 µM [quencher, side channel, partial curve]
Cc1cc(Nc2ccccc2)nn1C(=O)c1ccc(Br)cc1 11.2 µM [quencher, side channel, partial curve]
CCOc1c([N+](=O)[O-])cc2c(C)c(C(=O)N3CCN(C)CC3)oc2c1OCC 31.6 µM [fluorescent, side channel, partial curve]
O=C(Nc1ccccc1N1CCN(C(=O)c2ccccc2)CC1)c1ccc(Cl)cc1 7.94 µM [fluorescent, side channel, full curve]
CCN1/C(=C/c2cc[n+](CCCS(=O)(=O)[O-])c3ccccc23)Sc2ccccc21 39.8 µM [inhibitor, single point]
COc1ccc(-n2c(SCC(=O)NCC3CCCO3)nc3ccccc32)cc1 (stereo unspecified) 14.1 µM [fluorescent, side channel, partial curve]
CC(C)(C)NC(=O)NC(=O)COC(=O)CCC1CCCCC1 22.4 µM [fluorescent, side channel, partial curve]
O=C(Nc1nccs1)c1ccccc1N=Cc1ccccc1 17.8 µM [quencher, side channel, single point]
CCN(c1ccccc1)S(=O)(=O)c1cc(C(=O)Nc2ccc(Br)cc2)ccc1F 11.2 µM [quencher, side channel, partial curve]
Cc1ccc(C2(C)NC(=O)N(CC(=O)N(Cc3ccccc3)C(C)(C)C)C2=O)cc1 (stereo unspecified) 11.2 µM [inhibitor, partial curve]
O=C1c2cccc3cccc(c23)C(=O)N1CCCSc1ncn[nH]1 28.2 µM [inhibitor, single point]
COc1ccccc1CN1C[C@@H]2C[C@@H](c3ccc(Cl)cc3)N3CCC[C@@]23C1=O 3.16 µM [fluorescent, side channel, full curve]
O=C(c1cc2c(s1)CCC2)N1CCN(c2ccccc2)CC1 39.8 µM [quencher, side channel, single point]
O=[N+]([O-])c1cc(/C=N/n2c(-c3ccncc3)n[nH]c2=S)ccc1Cl 15.8 µM [quencher, side channel, partial curve]
O=C(CSc1ccc(-c2cccs2)nn1)NCCc1ccccc1 35.5 µM [fluorescent, side channel, single point]
CCn1cc(C(=O)NN)c(=O)c2cc(F)c(N3CCCCC3)cc21 31.6 µM [inhibitor, single point]
CCOC(=O)C1(CC2CCCCO2)CCN(Cc2nccn2-c2cccc(C)c2)CC1 (stereo unspecified) 7.94 µM [fluorescent, side channel, partial curve]
COc1ccc(NS(=O)(=O)c2ccc(O)c(NC(=O)c3cc4c(C)nn(-c5ccc(F)cc5)c4s3)c2)cc1 3.55 µM [quencher, side channel, full curve]
O=C(NNc1ccccc1[N+](=O)[O-])Nc1ccc(Cl)c(Cl)c1 22.4 µM [quencher, side channel, single point]
COc1ccc(/C=C2\SC(=S)N(CCC(=O)Nc3ccccc3C(=O)O)C2=O)cc1 17.8 µM [quencher, side channel, partial curve]
Oc1cccc2c(NC(=S)Nc3ccc(SC(F)F)cc3)cccc12 11.2 µM [quencher, side channel, partial curve]

Potency, inactive:
COc1cccc(-c2nnc3n2N=C(c2c(OC)cccc2OC)CS3)c1OC
O=C(OCCN1CCOCC1)C(c1ccccc1)c1ccccc1
CC(C)c1ccc(NC(=O)C2CCCN(S(=O)(=O)c3cccnc3)C2)cc1 (stereo unspecified)
CCOc1cc(C(=O)Nc2cc(C)ccn2)cc(OCC)c1OCC
Cc1cc(C)c2cc3c(N)c(C(=O)Nc4c(C)[nH]c(=O)[nH]c4=O)sc3nc2c1
CC(C)C(=O)c1cn(CC(=O)O)c2ccccc12
Cc1ccc(S(=O)(=O)N(CC(=O)Nc2ccc(Cl)c([N+](=O)[O-])c2)C2CCCCC2)cc1
